# Measurements as given in PubChem BioAssay AID686978 (National Center for Advancing Translational Sciences (NCATS), 2013).
# Where “and” joins values, the source holds several entries; their conditions need not be identical. Identical values can stand only once. In all, about 420,000 compounds went through this assay and about 64,000 (15%) were called active. This list was built around the results that the source calls inconclusive (neither active nor inactive); the mix of calls is not that of the screen. Calls come from the whole dose curve; as a rule, active = well fitted inhibition curve with a large enough effect; inconclusive = small, poorly fitted or top-dose-only effect; inactive = flat fitted curve, though single readings scatter. Potencies beside an inconclusive call are fits to weak or partial responses and may not hold up.
# Assay: qHTS for Inhibitors of human tyrosyl-DNA phosphodiesterase 1 (TDP1): qHTS in cells in absence of CPT; note: nearly all actives have a fitted effect of over 55% in size
# Conditions: DT40 Tdp1-/- hTDP1 cells, no CPT, ATP luminescence, 48 h; activity change, negative = growth inhibition: at 46.2 µM (top of the series)
# Method in brief: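 Cells were dispensed at 400 per well, compounds added by pin tool, plates incubated ≥48 hr at 37 °C, then CellTiter-Glo added for 30 min at room temperature before luminescence reading. Line: DT40 Tdp1-/- complemented with hTDP1; camptothecin omitted.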
# % is set by controls: 0 for no effect and ±100 for the full control effect; potency is the fitted concentration of half-maximal effect; tags give direction and shape of the fitted curve.
SMILES,Potency,"activity change, negative = growth inhibition"
CCCCCCOc1ccc(N2C(=O)CC(N3CCN(CCN=CC4=C(O)CC(C)(C)CC4=O)CC3)C2=O)cc1 (configuration not stated),"inconclusive: 25.9 µM [inhibitor, single point]",–
Cc1cc(N2CCN(C)CC2)n2nc(-c3ccc(Cl)cc3)nc2n1,–,inconclusive: -32.7% [inhibitor]
COc1ccc(/C=N/n2c(=O)[nH]c3c([nH]c4ccc(F)cc43)c2=O)cc1CN1CCCCC1,inactive,–
CCc1cc(=O)oc2cc(C)cc(OC(C)C(=O)NC3CCN(Cc4ccccc4)CC3)c12 (configuration not stated),"inconclusive: 18.4 µM [inhibitor, single point]",–
CCn1cc(CCC(=O)NCCN2CCOCC2)c2ccccc21,inactive,–
CC(C)Cn1c(CCCNC(=O)c2ccco2)nc2ccccc21,"inconclusive: 20.6 µM [inhibitor, single point]",–
Cc1ccc2nc(C3CCN(S(=O)(=O)c4ccc5ccccc5c4)CC3)[nH]c2c1,"inconclusive: 18.4 µM [inhibitor, single point]",–
O=c1[nH]nc(SCCS(=O)(=O)c2ccc(F)cc2)n1-c1ccccc1,"inconclusive: 29.1 µM [inhibitor, single point]",–
Cc1ccc(NC(=S)NNc2ccc([N+](=O)[O-])cc2S(=O)(=O)Nc2ccccc2C(=O)O)cc1C,"inconclusive: 8.2 µM [inhibitor, partial curve]",–
CCNC(=O)c1ccc2c(c1)C1C3CCC(C3)C1C(c1ccccc1)N2 (configuration not stated),"inconclusive: 29.1 µM [inhibitor, single point]",–
CC1(C)Cc2c(cnn2-c2ccccc2)C(NC(=O)c2ccc[n+]([O-])c2)C1 (configuration not stated),inactive,–
COC(=O)Cn1cnc(=O)c(C#N)c1/C=C/N(C)C,inactive,–
Cc1nc(SCC(=O)N2CCc3ccccc32)n[nH]1,inactive,–
CC(C)C(=O)N1CCN(c2ccccc2NC(=O)COc2ccccc2)CC1,"inconclusive: 29.1 µM [inhibitor, single point]",–
O=C(O)COc1ccc2nsnc2c1Cl,inactive,–
Cn1c(=O)n(C)c2cc(NC(=O)COc3ccccc3)ccc21,"inconclusive: 16.4 µM [inhibitor, single point]",–
COc1cc(CCC(=O)OCC(=O)Nc2sccc2C(N)=O)cc(OC)c1OC,"inconclusive: 13 µM [inhibitor, partial curve]",–
CC(C)(C)OC(=O)NCCc1nnc(SCc2ccccc2Cl)o1,"inconclusive: 29.1 µM [inhibitor, single point]",–
CCC/C=C(\CCC)C(NC(=O)OCC(C)C)c1ccc(C(=O)OC)cc1 (configuration not stated),active: 14.6 µM,–
COCCCN1C(=O)c2[nH]nc(-c3ccccc3O)c2C1c1ccc(OCc2ccccc2)cc1 (configuration not stated),"inconclusive: 20.6 µM [inhibitor, single point]",–
CC(=O)c1c(N2CCN(Cc3ccccc3)CC2)nc(=S)n(-c2ccccc2)c1C,active: 23.1 µM,–

SMILES,Potency,"activity change, negative = growth inhibition"
O=C(CSc1ccc(-c2ccc(Br)cc2)nn1)NCC1CCCO1 (configuration not stated),–,inconclusive: -31.7% [inhibitor]
C1=C(N2CCOCC2)/C(=C/c2nc3ccccc3[nH]2)CC1,active: 23.1 µM,–
COc1ccc(CNC(=O)C2CCCN(S(=O)(=O)c3ccc(F)cc3)C2)cc1 (configuration not stated),"inconclusive: 29.1 µM [inhibitor, single point]",–
O=C(CN(C1CCCCC1)S(=O)(=O)c1ccc(F)cc1)Nc1ccc2c(c1)OCO2,"inconclusive: 25.9 µM [inhibitor, single point]",–
N#CCc1ccc(NC(=O)Nc2cccc(Cl)c2)cc1,"inconclusive: 23.1 µM [inhibitor, single point]",–
O=C(CSC1=NCCS1)Nc1ccnc2ccccc12,active: 9.2 µM,–
Fc1ccccc1-c1nc(NCC2CC2)nc2ccsc12,"inconclusive: 23.1 µM [inhibitor, single point]",–
Cc1ccc(NC(=O)Cn2c(=O)n(CCCCC(=O)NCCc3ccc(Cl)cc3)c(=O)c3ccccc32)cc1,"inconclusive: 29.1 µM [inhibitor, single point]",–
COc1ccc(CCNC(=O)C2CCCN(Cc3nc(-c4ccccc4C)oc3C)C2)cc1OC (configuration not stated),active: 23.1 µM,–
CC(C)C(=O)N1CCC2(CC1)Oc1ccc(F)cc1C(=O)C21CC(c2ccccc2)=NO1 (configuration not stated),"inconclusive: 20.6 µM [inhibitor, single point]",–
COc1ccc(CNC(=O)CN2C(=O)COc3ccc(S(=O)(=O)N4CCC(C)CC4)cc32)cc1,"inactive and inconclusive: 20.6 µM [inhibitor, single point]",–
CCc1nc(SCC(=O)N2CCCCCC2)c2c(=O)n(C)c(=O)n(C)c2n1,"inconclusive: 29.1 µM [inhibitor, single point]",–
COc1ccc(CCNC(=O)c2oc(=O)c3ccccc3c2-c2ccccc2)cc1OC,"inconclusive: 29.1 µM [inhibitor, single point]",–
CCc1ccc2c(c1)cc(CN(C(=S)Nc1cccc(C)c1)C1CC1)c1nnnn12,"inconclusive: 11.6 µM [inhibitor, partial curve]",–
COc1ccc(NC(=S)NC(NC(=O)c2cccc(C)c2)C(Cl)(Cl)Cl)c([N+](=O)[O-])c1 (configuration not stated),"inconclusive: 18.4 µM [inhibitor, single point]",–
O=P(OCC1CCCO1)(OCC1CCCO1)OCC1CCCO1 (configuration not stated),inactive,–
Cc1cccc(C)c1OCC(=O)Nc1ccccc1C(=O)N1CCOCC1,inactive,–
CCOc1cccc(C(=O)Nc2cccc(-c3nnc(-c4ccc(C)cc4)o3)c2)c1,"inconclusive: 18.4 µM [inhibitor, single point]",–
CCc1nnc(NC(=O)c2sc3nc4c(cc3c2N)CCCCCC4)s1,"inconclusive: 16.4 µM [inhibitor, single point]",–
O=C(NCc1ccccc1)C(c1ccncc1)n1c(=O)c(-c2cc3ccccc3[nH]2)nc2ccccc21 (configuration not stated),"inconclusive: 25.9 µM [inhibitor, single point]",–
O=C(CN1CCN(C(=O)c2ccco2)CC1)N1CCc2[nH]c3ccccc3c2C1,"inconclusive: 14.6 µM [inhibitor, partial curve, poor fit]",–
